A lower IC50 marks a more sensitive line; a fit beyond the top or the lowest dose is shown as a bound at that dose. The AUC spans the tested range (256-fold, ending at the top dose) of the same fit: 1 means no effect, lower means more sensitive. For part of these data: An inferred top dose was derived from the fitted curves, not read from the paper. For part of these data: An entry number marks a drug with two screens in the source, which often give different values.
Experiments:
Assay in all cases: Viability of human cancer cell lines after 72 h of drug (GDSC screen)
XMD13-2 = compound: O=C(NC1CC1)c1cccc(-c2ccc3c(NC(=O)C4CC4)n[nH]c3c2)c1 [XMD13-2]; details: top dose 10.24 µM; top dose inferred
Description: (§1)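 Human cancer cell lines in 384-well plates, medium with 10% serum, drug for 72 h over a 256-fold dose range (nine 2-fold or five 4-fold steps up to the top dose). Adherent lines were fixed and stained with the nucleic acid dye Syto60, suspension lines read with resazurin; signal relative to control wells, capped at 0 and 100%. One two-parameter sigmoid per drug and line, fitted in a mixed model over all curves with the slope shared within a line.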

Vinblastine = compound: CC[C@]1(O)C[C@@H]2CN(CCc3c([nH]c4ccccc34)[C@@](C(=O)OC)(c3cc4c(cc3OC)N(C)[C@H]3[C@@](O)(C(=O)OC)[C@H](OC(C)=O)[C@]5(CC)C=CCN6CC[C@]43[C@@H]65)C2)C1 [Vinblastine]; details: top dose 0.1 µM; top dose inferred
Description: as §1

PF-562271 = compound: CN(c1ncccc1CNc1nc(Nc2ccc3c(c2)CC(=O)N3)ncc1C(F)(F)F)S(C)(=O)=O [PF-562271]; details: top dose 2.56 µM; top dose inferred
Description: as §1

Afatinib = compound: CN(C)C/C=C/C(=O)Nc1cc2c(Nc3ccc(F)c(Cl)c3)ncnc2cc1O[C@H]1CCOC1 [Afatinib]
Description: as §1

SNX-2112 = compound: CC1(C)CC(=O)c2c(C(F)(F)F)nn(-c3ccc(C(N)=O)c(N[C@H]4CC[C@H](O)CC4)c3)c2C1 [SNX-2112]; details: top dose 2.56 µM
Description: as §1

[1] = top dose 0.5 µM, screen: GDSC drug entry 1032
[2] = top dose 10 µM, screen: GDSC drug entry 1377, top dose inferred

| Cell Line | AUC (XMD13-2) | IC50 (XMD13-2) | AUC (Vinblastine) | IC50 (Vinblastine) | AUC (PF-562271) | IC50 (PF-562271) | AUC (Afatinib; [1]) | IC50 (Afatinib; [1]) | AUC (Afatinib; [2]) | IC50 (Afatinib; [2]) | AUC (SNX-2112) | IC50 (SNX-2112) |
| --- | --- | --- | --- | --- | --- | --- | --- | --- | --- | --- | --- | --- |
| KYSE-220 (oesophagus, adherent) | 0.901 | > 10200 nM | 0.573 | 10 nM | 0.914 | > 2560 nM | 0.786 | 228 nM | 0.789 | 4700 nM | 0.609 | 324 nM |
| SK-MEL-30 (melanoma, adherent) | 0.92 | > 10200 nM | 0.764 | 38.3 nM | 0.905 | > 2560 nM | 0.981 | > 500 nM | 0.984 | > 10000 nM | 0.619 | 348 nM |
| GR-ST (lymphoblastic leukaemia, suspension) | 0.789 | 5620 nM | 0.534 | 7.87 nM | 0.938 | > 2560 nM | 0.978 | > 500 nM | 0.92 | > 10000 nM | 0.361 | 60.6 nM |
| IA-LM (large cell lung carcinoma, adherent) | 0.909 | > 10200 nM | 0.789 | 50.3 nM | 0.905 | > 2560 nM | 0.985 | > 500 nM | 0.946 | > 10000 nM | 0.706 | 662 nM |
| NB(TU)1-10 (neuroblastoma, adherent) | 0.992 | > 10200 nM | 0.962 | > 100 nM | 0.897 | 2430 nM | 0.993 | > 500 nM | 0.993 | > 10000 nM | 0.405 | 91.1 nM |
| AMO-1 (haematopoietic neoplasm, suspension) | 0.901 | 9990 nM | 0.367 | 2.85 nM | 0.977 | > 2560 nM | 0.991 | > 500 nM | 0.973 | > 10000 nM | 0.184 | 21.8 nM |
| Capan-2 (pancreas, adherent) | 0.972 | > 10200 nM | 0.872 | > 100 nM | 0.967 | > 2560 nM | 0.922 | > 500 nM | 0.82 | 7390 nM | 0.979 | > 2560 nM |
| HCC1395 (breast, adherent) | 0.951 | > 10200 nM | 0.598 | 12.3 nM | 0.973 | > 2560 nM | 0.985 | > 500 nM | 0.977 | > 10000 nM | 0.948 | > 2560 nM |
| CAL-85-1 (breast, adherent) | 0.881 | > 10200 nM | 0.681 | 23.2 nM | 0.804 | 1740 nM | 0.956 | > 500 nM | 0.756 | 4330 nM | 0.777 | 1340 nM |
| NCI-H1436 (small cell lung carcinoma, suspension) | 0.924 | > 10200 nM | 0.857 | > 100 nM | 0.975 | > 2560 nM | 0.986 | > 500 nM | 0.926 | > 10000 nM | 0.825 | 1830 nM |
| U251 (glioma, adherent) | 0.766 | 3620 nM | 0.554 | 8.74 nM | 0.839 | 1630 nM | 0.982 | > 500 nM | 0.975 | > 10000 nM | 0.277 | 38.6 nM |
| HCC-78 (lung adenocarcinoma, adherent) | 0.909 | > 10200 nM | 0.596 | 12 nM | 0.915 | > 2560 nM | 0.881 | > 500 nM | 0.914 | > 10000 nM | 0.9 | > 2560 nM |
| KS-1 (glioma, adherent) | 0.875 | > 10200 nM | 0.557 | 9.31 nM | 0.88 | > 2560 nM | 0.924 | > 500 nM | 0.883 | > 10000 nM | 0.35 | 55.2 nM |
| Hs746T (stomach, adherent) | 0.72 | 3380 nM | 0.751 | 43.5 nM | 0.981 | > 2560 nM | 0.974 | > 500 nM | 0.969 | > 10000 nM | 0.731 | 929 nM |
| NCI-H1651 (lung adenocarcinoma, adherent) | 0.983 | > 10200 nM | 0.704 | 24.6 nM | 0.952 | > 2560 nM | 0.983 | > 500 nM | 0.961 | > 10000 nM | 0.945 | > 2560 nM |
| HCC1569 (breast, adherent) | 0.952 | > 10200 nM | 0.78 | 56.2 nM | 0.956 | > 2560 nM | 0.861 | > 500 nM | 0.837 | > 10000 nM | 0.811 | 1960 nM |
| WM793B (melanoma, adherent) | 0.924 | > 10200 nM | 0.597 | 11.9 nM | 0.884 | > 2560 nM | 0.948 | > 500 nM | 0.967 | > 10000 nM | 0.34 | 54.6 nM |

From the supplement of paper PMC4967469
